Measurements reported in PubChem BioAssay AID1347120 (National Center for Advancing Translational Sciences (NCATS), 2019).
The whole screen tested about 390,000 compounds, of which about 930 (0.24%) were called active. Inconclusive means that the source gave no clear call. Such entries were picked first, then a sample of the others. Calls come from the whole dose curve; as a rule, active = well fitted activation curve with a large enough effect; inconclusive = small, poorly fitted or top-dose-only effect; inactive = no such curve, though single readings can be large or run the other way. A potency beside an inconclusive call is a rough fit, not a confirmed value.

Test: qHTS for Suppressors of FUS Proteinopathy: Primary screen using FUS-linked yeast assay; note: nearly all actives have a fitted effect of over 55% in size;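 for growth rescue (activation): plate controls were DMSO vehicle for no effect and reference control for full effect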
Details: S. cerevisiae FUS-expressing, OD600, 24 h; Potency: growth rescue; growth rescue (activation): at 76.6 µM (top of the series)
How it was run: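 S. cerevisiae expressing FUS from galactose induction served as the toxicity model. Growth after 24hr at 30C, read as absorbance at 600 nm, indicates suppression of toxicity; compounds dosed at several concentrations.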
Potency is the fitted concentration of half-maximal effect; tags give direction and shape of the fitted curve.

Structure (SMILES) | Potency | growth rescue (activation)
COc1ccc(-c2nc(CSCC(=O)N3CCN(c4ccccc4F)CC3)c(C)o2)cc1 | inconclusive: 44.7 µM [activator, single point] | 
COC(=O)[C@]1(C)N[C@H](c2ccc(-c3ccc(Cl)c(Cl)c3)c(OC)c2)[C@@H]2C(=O)N(C)C(=O)[C@@H]21 | inconclusive: 35.5 µM [activator, single point] | 
COc1cc2nc(C)sc2cc1SC | inconclusive: 6.31 µM [activator, single point] | 
NC1=NN=C(N2N=C(c3ccco3)CC2(O)C(F)(F)F)n2ncnc2C1 (configuration not stated) |  | inactive: 24.3%
O=C(CCS(=O)(=O)c1ccc(Br)s1)Nc1cc(C(F)(F)F)cc(C(F)(F)F)c1 |  | inactive: 18.1%
Clc1ccc(CSc2nnc(CNc3cccc(Cl)c3)o2)cc1 |  | inactive: 32.5%
CC[C@]12c3[nH]c4cc(-c5ccco5)ccc4c3CCN1C(=O)[C@@H](CC(=O)NCc1ccco1)C[C@@H]2C(=O)N1CCN(C(=O)c2ccco2)CC1 | inconclusive: 28.2 µM [activator, single point] | 
Cc1c(C)n(Cc2ccccc2)c2ccc(C(=O)N3CCN(c4ccccc4)CC3)cc12 | inconclusive: 25.1 µM [activator, partial curve] | 
CCN(c1ccccc1)S(=O)(=O)c1ccc(N2CCN(c3ccccc3O)CC2)nc1 | inconclusive: 31.6 µM [activator, partial curve, poor fit] | 
CC(C)Oc1ccc(C(=O)N(Cc2ccc(N(C)C)cc2)Cc2ccco2)cc1 | inconclusive: 15.8 µM [activator, partial curve, poor fit] | 
O=C(c1cc2sccc2n1Cc1ccc(F)cc1)N1CCCc2ccccc21 | inconclusive: 20 µM [activator, partial curve, poor fit] | 
O=C(Nc1nc2ccc(F)cc2s1)c1ccccn1 |  | inactive: -4.29%
CCOC(=O)C1=NOC(C(=O)NC2CCCC2)(C(=O)c2ccc(OC)cc2)C1 (configuration not stated) |  | inactive: 5.54%
O=C(COC(=O)c1ccc2ccccc2c1O)NCC(F)(F)F |  | inactive: 20.2%
COC(=O)[C@]12C[C@H](CC(=O)NCC34CC5CC(CC(C5)C3)C4)C(=O)N(Cc3ccc4c(c3)OCO4)C1=C[C@H](C(C)C)O[C@@H]2C1CC1 | inconclusive: 17.8 µM [activator, partial curve, poor fit] | 
COc1ccc(NS(=O)(=O)c2ccc3c(c2)CCC(=O)N3)cc1O | inconclusive: 11.2 µM [activator, single point] | 
Cc1cccc(N2CC(C(=O)Nc3nnc(SCC(=O)NCC4CCCO4)s3)CC2=O)c1 (configuration not stated) | inconclusive: 15.8 µM [activator, partial curve, poor fit] | 
